Results reported in the supplement of paper PMC4723716.
Whole data set: some 3,600 compounds, median “viability index relative to DMSO control” near 0.81, cut for the lowest 2% near 0.13. Some of the results follow.

Tested on: Plasmodium falciparum NF54 stage V gametocytes
Assay: viability index relative to DMSO control (fraction); higher = less gametocyte killing
Details: 1.25 µM, incubation time: 72 h
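Note: 384-well serum-free SaLSSA: MitoTracker Red CMXRos staining with saponin lysis, high-content imaging, treated-well particle count divided by plate-mean count of DMSO wells.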

Structure (SMILES) | viability index
O=C1C2C(C(=O)N1c1ccc(Br)cc1)C1C=CC2C12CC2 (stereo unspecified) | 0.796
O=c1c2ccccc2nc2n1CCN2Cc1ccc(Cl)cc1 | 0.623
CC(=O)c1cccc(S(=O)(=O)NCCCNc2nc3cc(C)cc(C)c3cc2C#N)c1 | 0.656
Cc1cccc(Nc2ccccc2C(=O)OCC(=O)N2CC(=O)Nc3ccccc32)c1C | 1
O=C1C2C(C(=O)N1c1ccc(Cl)c(C(F)(F)F)c1)C1(c3ccccc3)C(=O)C2(c2ccccc2)C(c2ccccc2)=C1c1ccccc1 (stereo unspecified) | 0.706
CCc1c(C#N)c(N)nc(SCC(=O)c2ccc(C)cc2)c1C#N | 0.848
Cc1ccc(Nc2nc(NCc3ccco3)c3ccccc3n2)cc1 | 0.785
COc1cc(OC)cc(-n2nc(C(=O)NCCCN3CC(C)CC(C)C3)c3ccccc3c2=O)c1 (stereo unspecified) | 1
CC(=NO)c1ccc2c(c1)C(C)(C)CCC2(C)C | 1.05
N#CCSc1nc2ccccc2c2nc(CCc3c[nH]c4ccccc34)nn12 | 0.988
OC(CN1CCOCC1)Cn1cnc2c(SCc3ccccc3)ncnc21 (stereo unspecified) | 0.759
O=C(Nc1ccc([N+](=O)[O-])cc1Cl)c1cc(Br)ccc1O | 0.837
CN(C)S(=O)(=O)c1ccc(C(=O)Nc2nc3c(ccc4ccccc43)s2)cc1 | 0.665
CCOC(=O)c1cnc2ccc(C(C)C)cc2c1O | 0.731
O=C(COC(=O)c1ccccc1O)c1ccc(Br)cc1 | 0.707
CCOc1ccc(NC(=O)CSc2nncc(=O)[nH]2)cc1 | 0.779
Cc1cc(C)cc(Nc2cc(C)nc3ncnn23)c1 | 0.75
CCCCC(=O)NC(c1ccccc1)c1ccc2cccnc2c1O (stereo unspecified) | 0.776
CN(C)CCNCc1cc(-c2ccnc3cc(Cl)ccc23)ccc1O | 0.762
O=c1[nH]n(CC2COC(c3ccccc3)O2)c(=O)c2ccccc12 (stereo unspecified) | 0.885
CN1C2CCC1C(=Cc1ccsc1)C(=O)C2=Cc1ccsc1 | 0.859
Cc1ccc(C(C(=O)NC2CCCCC2)N(C(=O)c2ccc(-c3ccccc3)[nH]2)c2ccc(C3CCCCC3)cc2)o1 (stereo unspecified) | 0.678
CN(C)c1ccc(C=Cc2cccc[n+]2C)cc1 | 1

Structure (SMILES) | viability index
CC(Cl)=CC[N+]1(CC#Cc2cccc3ccccc23)CCOCC1 | 0.556
COc1ccc(NC(=O)C2=C(C)Nc3c(C(=O)Nc4ccc(C)cc4)cnn3C2c2cccc(Cl)c2)cc1 (stereo unspecified) | 0.365
CCCCCN(CCCCC)C(O)c1cc2c(c3ccccc13)CCCC2 (stereo unspecified) | 1.07
COc1ccc(C2C(C(=O)c3ccc(C)cc3)=C(O)C(=O)N2CCN2CCOCC2)c(OC)c1 (stereo unspecified) | 0.988
CC(=O)NC(c1ccc(N(C)C)cc1)c1cc(Cl)c2cccnc2c1O (stereo unspecified) | 0.842
CSc1nc(N)nc(SC2C=CCCC2)c1C#N (stereo unspecified) | 0.767
Cc1c(C(=O)N2CCN(c3ccc([N+](=O)[O-])cc3)CC2)sc2ncnc(N(C)c3ccccc3)c12 | 0.855
C#CCN1c2ccccc2Sc2cccnc21 | 0.834
Cc1ccc(-c2nn(-c3ccccc3)c3[nH]c(=O)c(CNCc4ccccc4)cc23)cc1 | 0.413
COc1ccc(NC(=O)COc2ccccc2C(C)C)c(OC)c1 | 0.736
Cc1ccc2nc(-c3ccccc3)cc(C(=O)Nc3ccc(Cl)c(Cl)c3)c2c1 | 0.902
Cn1nc(C(=O)Nc2ccc(F)c(Cl)c2)c2c1-c1ccccc1S(=O)(=O)C2 | 1.1
COc1cc2nc(C3CCC3)n(NC(=O)c3cccc(F)c3)c(=O)c2cc1OC | 0.87
O=C1N(Cc2cc3ccccc3s2)CC2CN(Cc3ccsc3)CCN12 (stereo unspecified) | 0.44
O=C(Nc1ccc(-c2nc3ccc(NC(=O)c4ccc(Br)o4)cc3[nH]2)cc1)c1ccc(Br)o1 | 1.1
O=C(Nc1ccc(Cl)cc1)Nc1ccc(Br)cn1 | 0.903
CCC(=O)NCc1nnc(SCc2cccc(C(F)(F)F)c2)n1-c1cccc(OC)c1 | 0.865
CC(C)CCNCC(O)Cn1c2ccc(Br)cc2c2cc(Br)ccc21 (stereo unspecified) | 0.23
CCNc1nc(NC(C)CC)nc(ON=C(C)C)n1 (stereo unspecified) | 0.732
COc1nc(NC(=N)N)nc2ccc(C)cc12 | 0.906
O=C(c1ccco1)N1CCN(c2ccc([N+](=O)[O-])c(NC3CC3)c2)CC1 | 0.226
COc1ccc(OC)c(C(=O)c2oc3ccccc3c2NC(=O)CCl)c1 | 1
Cc1ccc(-c2cc(C(=O)OCC(=O)c3cccc([N+](=O)[O-])c3)c3cc(C)ccc3n2)cc1 | 1.16

Structure (SMILES) | viability index
CCN(CC)CCN(Cc1cc2ccc(C)cc2[nH]c1=O)C(=S)NC(C)c1ccccc1 (stereo unspecified) | 0.903
NCCCNc1ncc(C(=O)NCc2ccccc2)c(NCC2CCCCC2)n1 | 0.685
C=CCSc1oc(-c2ccco2)nc1[P+](c1ccccc1)(c1ccccc1)c1ccccc1 | 0.26
Cc1ccc(N=C2S/C(=C\c3ccccc3)C(=O)N2c2ccc(C)cc2)cc1 | 0.77
Cc1cc(C)c2cc(CN(CCN(C)C)C(=S)NCCCN(C)C)c(=O)[nH]c2c1 | 1.11
O=C(NCc1ccco1)c1cccc(Cl)c1Cl | 0.739
Oc1ccc(-c2ccc3c(c2)OCO3)cc1CNC12CC3CC(CC(C3)C1)C2 | 0.615
CCOC(=O)C1CCN(C(=O)CN2C(=O)c3ccccc3C2c2c[nH]c3ccccc23)CC1 (stereo unspecified) | 0.859
CCOc1ccccc1NC(=O)CN1CCN(C(=O)c2ccco2)CC1 | 0.61
CCOC(=O)c1cc(-c2ccc(Cl)cc2Cl)[nH]c1N1CCN(c2ccc(OC)cc2)CC1 | 0.791
CC(=O)N(Cc1ccc(F)cc1)C1=C(NCCc2ccccc2)C(=O)c2ccccc2C1=O | 0.0184
CC1=C(C(=O)OC2CCCC2)C(c2ccccc2F)C2=C(CC(c3ccccc3)CC2=O)N1 (stereo unspecified) | 1.23
O=C(c1ccccc1)N1CCN(c2ccccc2NC(=O)C(Cl)(Cl)Cl)CC1 | 1.22
COc1cc(C(=O)ON=C(N)Cc2cccc3ccccc23)cc(OC)c1OC | 0.918
CCCCSCC(O)CN1CCCCC1 (stereo unspecified) | 0.954
O=C(Nc1ccc(-c2cn3cccnc3n2)cc1)c1ccccc1I | 0.829
CCN(CC)CCNc1ncnc2c1[nH]c1ccc(Br)cc12 | 0.78
CCC(c1nc2ccccc2c(=O)n1-c1cccc(C)c1)N(Cc1ccccc1)C(=O)Nc1c(C(C)C)cccc1C(C)C (stereo unspecified) | 0.887
c1cncc(CCNc2nccn3c(-c4ccc5ccccc5c4)cnc23)c1 | 0.786
Cc1ccc(S(=O)(=O)Nc2ccc(C(=O)NCCC(C)C)cc2)cc1 | 0.971
CCOC(=O)N1CCc2c(sc(NCc3ccc(C)o3)c2C(=O)Nc2ccc(OC)cc2OC)C1 | 1.3
O=C(NCc1c(Cl)cccc1Sc1ccc(Cl)cc1)c1ccc2c(c1)CCO2 | 0.805
CCOc1ccc2nc(Sc3nc(Nc4cccc(C)c4)nc(Nc4cccc(C)c4)n3)sc2c1 | 1.02

Structure (SMILES) | viability index
COc1cc(C(=O)Nc2ccc3nc4n(c(=O)c3c2)CCCCC4)cc(OC)c1OC | 1.42
CCCOC(=O)C1=C(C)NC2=C(C(=O)CCC2)C1c1cc(Br)c(O)c(OCC)c1 (stereo unspecified) | 1.1
COc1ccc(C2Sc3ccccc3N=C3C2=C(O)c2ccccc23)cc1 (stereo unspecified) | 0.667
COc1ccc(CN2CCC(C(=O)Nc3ccc(Oc4cccnc4)cc3)CC2)cc1 | 0.856
OCCNc1nc(Nc2ccc(F)cc2)nc2ccccc12 | 0.656
Cc1ccc(NC(=O)C2C3C=CC4(O3)C2C(=O)N(Cc2cccnc2)C4C(=O)NC2CCCCC2)cc1 (stereo unspecified) | 1
c1ccc(CC[n+]2cc(-c3ccccc3)n3c2CCC3)cc1 | 0.619
CCOC(=O)CN(C)Cc1ccc2c(NC(=O)c3ccc(C)s3)c(C(=O)OC)sc2n1 | 0.846
CCC(C)NC(=O)CN(c1cc(OC)ccc1OC)S(C)(=O)=O (stereo unspecified) | 0.814
Cc1cc(Nc2ccc(Cl)cc2)nc(NCc2ccccc2)n1 | 0.498
CCN1/C(=C\C=C2/SC(=S)N(c3ccccc3)C2=O)C(C)(C)c2cc(-c3ccccc3)ccc21 | 0.983
OCC[n+]1c2ccccc2nc2ccc(N3CCOCC3)cc21 | 1.2
Cc1nc(C(C)N(C)Cc2c(C(=O)N3CCCCCCC3)nc3sccn23)c(C)s1 (stereo unspecified) | 1.1
CCCC(=O)NC(c1ccc(Cl)cc1)c1ccc2cccnc2c1O (stereo unspecified) | 0.622
O=C(NCc1n[nH]c(=S)n1-c1ccc(Br)cc1)c1cccc2ccccc12 | 0.604
CSC1=NC(=Nc2c(C)cccc2C)C2(CCC(C(C)(C)C)CC2)N1c1ccc(Cl)cc1 (stereo unspecified) | 0.576
CCOc1ccc(N=C2NC(=O)SC2=C2C(=O)Nc3ccc(Br)cc32)cc1 | 1.01
CCOc1ccc2[nH]c(=O)c(CN(CCN3CCCC3)C(=S)Nc3ccc(F)cc3)cc2c1 | 0.885
Clc1ccccc1-c1nc([P+](c2ccccc2)(c2ccccc2)c2ccccc2)c(N2CCOCC2)o1 | 0.265
O=C(NC1CCCCC1)c1noc2c1CCCCC2 | 1.2
CCc1ccc2[nH]c(=O)c(CN(CCO)C(=S)Nc3ccccc3CC)cc2c1 | 0.724
CCCC(=O)NC(c1cccc([N+](=O)[O-])c1)c1ccc2cccnc2c1O (stereo unspecified) | 0.67
